# PubChem BioAssay AID488969 (Vanderbilt High Throughput Screening Facility, 2010)
# Over roughly 110,000 compounds, “z-score” has its median near -0.1; the highest 2% begin near 2. The list shows a part of the results. Calls of active or inactive are those of the source.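 How the source made its calls: active means z-score in the third read window above 3 or below -3; inactive means the rest.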
# Target: Metabotropic glutamate receptor 8 (Rattus norvegicus) (UniProt P70579)
# Assay: mGluR8 Gi/Go-coupled signaling modulation – cell-based, rat, thallium flux, HTS, primary screen (AID 488969)
# Details: HEK293 rat mGluR8, GIRK (G protein-gated inwardly rectifying potassium channel) thallium flux, FluoZin2; at 10 µM; stronger effect = higher value; submaximal glutamate (EC20) added with thallium
# UniProt P70579, sequence (P70579 whole entry, looked up): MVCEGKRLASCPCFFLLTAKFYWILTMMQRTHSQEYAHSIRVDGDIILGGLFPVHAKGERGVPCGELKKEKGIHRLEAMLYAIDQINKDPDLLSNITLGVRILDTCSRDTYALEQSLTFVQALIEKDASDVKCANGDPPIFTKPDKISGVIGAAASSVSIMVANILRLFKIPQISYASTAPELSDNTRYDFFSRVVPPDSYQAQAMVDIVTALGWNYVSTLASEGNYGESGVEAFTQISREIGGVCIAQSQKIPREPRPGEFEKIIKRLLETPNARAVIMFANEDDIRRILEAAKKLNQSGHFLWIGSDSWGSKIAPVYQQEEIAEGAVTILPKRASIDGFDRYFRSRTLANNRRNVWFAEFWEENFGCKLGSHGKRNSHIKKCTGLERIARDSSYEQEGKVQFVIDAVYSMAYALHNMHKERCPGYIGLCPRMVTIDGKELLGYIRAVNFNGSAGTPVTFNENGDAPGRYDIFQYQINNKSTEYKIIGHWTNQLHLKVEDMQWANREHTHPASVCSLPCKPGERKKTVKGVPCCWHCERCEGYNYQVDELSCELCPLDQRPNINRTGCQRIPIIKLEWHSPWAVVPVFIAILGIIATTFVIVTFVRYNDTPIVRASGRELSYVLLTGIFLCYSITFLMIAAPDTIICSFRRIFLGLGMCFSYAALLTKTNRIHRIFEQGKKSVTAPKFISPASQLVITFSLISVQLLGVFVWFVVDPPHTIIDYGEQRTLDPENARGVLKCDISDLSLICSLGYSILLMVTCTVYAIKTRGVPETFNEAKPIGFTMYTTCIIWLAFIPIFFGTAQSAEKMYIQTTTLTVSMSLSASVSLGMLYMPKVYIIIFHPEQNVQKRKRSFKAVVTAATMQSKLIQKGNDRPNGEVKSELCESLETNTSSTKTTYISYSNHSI
row,Structure (SMILES),z-score
1,Cc1ccc(C(=O)C2C(c3ccc(-c4ccccc4[N+](=O)[O-])o3)NC(=O)NC2(O)C(F)(F)F)cc1 (configuration not stated),0.305
2,N#Cc1cn(CC(=O)NCc2cccnc2)c2ccccc12,-0.104
3,O=C(O)c1cc(CN2CCOCC2)oc1-c1ccccc1,0.271
4,CCOc1ccc(Br)cc1S(=O)(=O)Nc1ccc(Cl)c(S(=O)(=O)N(CC)c2ccccc2)c1,-0.145
5,CCOc1ccccc1N1CCN(c2nc(N)c(C#N)c(CC#N)c2C#N)CC1,-2.53
6,CCOC(=O)C1=C(C)NC(=O)NC1c1ccc(OC(=O)c2ccco2)cc1 (configuration not stated),0.2
7,CCOC(=O)C1CCN(C(=O)c2sc3ncnc(N4CCC(C)CC4)c3c2C)CC1,-0.496
8,O=C(/C=C/Nc1ccccc1Br)c1ccccn1,-0.307
9,COC(=O)CN(C#N)c1nc(SC)nc(N(C)C)n1,-0.674
10,CCCCCCOc1ccc(OC(=O)c2ccncc2)cc1,-0.355
11,COc1ccccc1C(O)(C(=O)NNc1ccccc1C)c1ccccc1OC,-0.123
12,O=C(CSc1nnc(-c2ccncc2)n1Cc1ccco1)c1ccc(Cl)cc1,-0.516
13,CC1(C)OC(=O)N2CCc3ccccc3C21C (configuration not stated),-0.43
14,Cc1ccc2c(c1)c1c(n2CC(O)CNC(C)(C)C)CCCC1 (configuration not stated),2.4
15,CCN(c1ccccc1)S(=O)(=O)c1ccc(F)cc1C,-0.392
16,CC(=O)Nc1ccc(S(=O)(=O)NCCc2ccc(F)cc2)cc1,-0.135
17,COCCn1c(SCC(=O)NC(=O)NC(C)C)nc2ccccc21,-0.123
18,COc1ccc(NC(=S)NCc2ccc(S(N)(=O)=O)cc2)c(OC)c1,0.136
19,CCCn1c(SCC(=O)NC(C)C23CC4CC(CC(C4)C2)C3)n[nH]c1=O (configuration not stated),0.0276
20,CCOC(=O)N1CCN(Cc2nc3c(c(=O)n(C)c(=O)n3C)n2CCCc2ccccc2)CC1,-0.265
21,COc1cccc(N=Cc2c[nH][nH]c2=O)c1,-0.323
22,CC1CCc2nn(CC(=O)N3CCc4ccccc43)cc2C1 (configuration not stated),0.16

row,Structure (SMILES),z-score
1,CC(=O)c1ccc(OC(=O)C2CC(=O)N(c3cccc(C)c3)C2)cc1 (configuration not stated),-1.58
2,Cc1ccc(-c2nc3cnccn3c2Nc2ccc3c(c2)OCO3)cc1,-0.0623
3,O=C(NC(Cc1c[nH]c2ccccc12)C(=O)Nc1ccc(OC(F)(F)F)cc1)c1cccs1 (configuration not stated),-0.131
4,CCOC(=O)N1CCC(Nc2c(N3CCN(c4cc(Cl)ccc4C)CC3)c(=O)c2=O)CC1,-2.82
5,COc1ccc(-c2noc(CCCOc3ccc(Cl)cc3Cl)n2)cc1,-0.158
6,CC1CN(c2cc(-c3ccccc3)c3ccccc3n2)CC(C)O1 (configuration not stated),-0.832
7,O=C(Cn1nnc(-c2ccccc2)n1)N/N=C/c1ccc(-c2ccc(Cl)cc2)o1,-0.788
8,CCN1CCN(Cc2c(C)[nH]c3ccc(C(=O)OC)cc3c2=O)CC1,0.325
9,C=CCn1c(SCc2csc(C)n2)nc2scc(-c3ccc(C)o3)c2c1=O,-0.206
10,CCOC(=O)Cc1csc(NC(=O)CSc2nnc(C3CC3)n2C)n1,0.34
11,CC(CC(=O)Nc1ccc2c(c1)OCCO2)c1ccccc1 (configuration not stated),-0.222
12,CCC(C)C(NS(=O)(=O)c1ccc(C)cc1)C(=O)Oc1ccc2c3c(c(=O)oc2c1)CCC3 (configuration not stated),-0.384
13,CS(=O)(=O)c1ccc2nc(NC(=O)Nc3ccc(Cl)c(Cl)c3)sc2c1,active: 3.23
14,Cc1cc2cc(C)c3nnc(SCC(=O)NCc4ccc5c(c4)OCO5)n3c2cc1C,-0.28
15,COc1ccc(CNC(=O)C2CCCN(c3nc4ccccc4o3)C2)c(OC)c1 (configuration not stated),0.18
16,CCC1CCc2c(sc(NC(=O)C3c4ccccc4Oc4ccccc43)c2C(N)=O)C1 (configuration not stated),-0.292
17,c1ccc2c(c1)OCC(c1nnc3sc(-c4ccc5c(c4)OCO5)nn13)O2 (configuration not stated),-1.12
18,COc1cc2c(cc1NC(=S)Nc1cccc3ccccc13)oc1ccccc12,0.159
19,COc1ccnc(NCc2cccc(C(F)(F)F)c2)c1C#N,-0.304
20,CC(C)c1ccc(N(CC(=O)O)S(=O)(=O)c2cccnc2)cc1,-0.545
21,O=C(CC1C(=O)N(c2ccc(Cl)cc2)C(=S)N1CCc1ccncc1)Nc1ccc(F)cc1 (configuration not stated),-0.12
22,CN(C(=O)CSc1nnc2ccccn12)c1c(N)n(Cc2ccccc2)c(=O)[nH]c1=O,-0.124

row,Structure (SMILES),z-score
1,Cc1ccc(N(C(=O)CS(=O)CC(=O)Nc2ccc(F)cc2)C(C(=O)NC2CCCCC2)c2ccco2)cc1 (configuration not stated),-0.219
2,O=C(c1ccc(Cl)cc1)c1cnc(Nc2ccccc2Cl)s1,0.181
3,O=C(Cc1cccs1)OCC(=O)c1ccco1,0.297
4,COc1ccc(NC(=O)CSc2nc(C)c3c(c2C#N)CCCC3)cc1,-1.09
5,O=C([C@H](Cc1ccccc1)NS(=O)(=O)c1ccc(Cl)cc1)N1CC[C@@]2(O)CCCC[C@H]2C1,-0.15
6,CCOc1ccc(NC(=O)CSc2nnc(C)n2Cc2ccccc2)cc1,-0.275
7,Cc1noc(NS(=O)(=O)c2ccc(NC(=O)CSc3nnc(-c4ccccc4)n3C3CCCCC3)cc2)c1C,-0.348
8,Cc1cc(C)c(NC(=O)COC(=O)CCc2ccc(S(=O)(=O)N3CCCCC3)cc2)c(C)c1,-0.0684
9,CN1C(=O)NC(c2ccccc2)C2=C1CN(CCc1ccccc1)C2=O (configuration not stated),0.0172
10,COc1ccc(CC(=O)NNC(=O)c2ccoc2C)cc1OC,0.0579
11,O=C(Nc1ccncc1)c1cn(-c2ccccc2)nc1-c1cccs1,-0.466
12,Cc1cccc(C)c1OCC(=O)Nn1c(COc2ccccc2)nc2ccccc2c1=O,-0.0916
13,COc1ccc(-c2nc(CS(=O)CC(=O)NCc3ccc(Cl)cc3)c(C)o2)cc1 (configuration not stated),-0.272
14,N#CC(C#N)C(c1ccsc1)c1c(-c2ccccc2)[nH][nH]c1=O (configuration not stated),-0.151
15,CCC1C/C(=C\c2cccnc2)C(=O)/C(=C/c2cccnc2)C1 (configuration not stated),0.0883
16,O=C(NCc1ccco1)c1ccc(CS(=O)(=O)Cc2ccc(Cl)cc2)o1,-0.145
17,CCOc1ccc(C(=O)NC(=S)Nc2ccccc2N2CCC(C)CC2)cc1[N+](=O)[O-],0.648
18,CCCS(=O)(=O)N1CCCC(C(=O)NCCN(CC)c2ccccc2)C1 (configuration not stated),0.077
19,CC[C@@H](C)[C@H](NC(=O)C1CCN(C(=O)[C@@H](NS(=O)(=O)c2ccc(C)cc2)C(C)C)CC1)C(=O)O,0.0365
20,CC1Cc2ccccc2N1Cc1nc2cc(C(F)(F)F)ccc2c(=O)[nH]1 (configuration not stated),1.57
21,O=C(O)C1CC(=O)N(c2ccc(OCc3ccccc3Cl)cc2)C1 (configuration not stated),-0.652
22,Cc1cc(C)c2nc(SCCC#N)nc(C)c2c1,-0.12

row,Structure (SMILES),z-score
1,O=C(c1nsc(Cl)c1Cl)N1CCCCC1,0.0424
2,CCCCC(C(=O)NC(=O)NCc1ccccc1)N1C(=O)c2ccccc2C1=O (configuration not stated),-0.286
3,CCC(C)NC(=O)CN(C)S(=O)(=O)c1ccc2c(c1)c(=O)n(C)c(=O)n2C (configuration not stated),-0.235
4,COc1ccc(N2C(=O)CC(N3CCN(c4ccccc4F)CC3)C2=O)cc1 (configuration not stated),-0.0689
5,COc1cc(NC(=O)c2cc3c(=O)n(C)c4ccccc4c3n2C)cc(OC)c1OC,-0.967
6,Cc1ccnc(-n2sc3ccccc3c2=O)n1,-0.415
7,CCCc1nn(C)c(C(=O)Nc2ccc(C)c(C)c2)c1Cl,-0.0927
8,COC(=O)CN1CCN(C(c2ccccc2)c2ccccc2)CC1,-0.0339
9,N/C(CC(=O)Nc1ccc(F)cc1)=N\O,0.135
10,O=S(=O)(c1cccs1)n1cnc2ccccc21,-0.271
11,N#Cc1c(Nc2ccccc2)c(C=NCCN2CCOCC2)c[nH]c1=O,-0.167
12,CCC(C)(C)n1nnnc1C(c1ccccn1)N1CCOCC1 (configuration not stated),0.0153
13,COc1ccc(Nc2nnc(SCc3cc([N+](=O)[O-])cc4c3OCOC4)s2)cc1,-0.342
14,Cc1ccc(CO/N=C\Cc2snc(Sc3ncc(C(F)(F)F)cc3Cl)c2C#N)cc1,0.0198
15,CCC(C)c1ccc(NC(=O)c2cccs2)cc1 (configuration not stated),-0.675
16,CC#CCCCC(=O)Nc1cccc(C(=O)O)c1,-0.382
17,Cc1cc(Nc2ccc(Cl)cc2)nc(NCc2ccccc2)n1,-0.173
18,O=C(COC(=O)c1ccc(Cl)cc1O)Nc1cccnc1Cl,-0.067
19,CCC(NS(=O)(=O)c1ccc(OC)cc1)C(=O)O (configuration not stated),-0.512
20,CCOC(=O)c1cc2sc(C)cc2n1CC(=O)N1CCOCC1,-0.116
21,COc1ccccc1C(=O)N1CCN=C1SCc1cccnc1,0.00671
22,Cc1ccc(NC(=O)c2ccc(CSc3nnc(C)s3)cc2)c(C)c1,-0.22

row,Structure (SMILES),z-score
1,CC1CCCCN1C(=O)c1ccc(C(=O)N2CCCCC2C)cc1 (configuration not stated),0.33
2,COC(=O)Cn1cnc2c(C#N)c3n(c2c1=O)CCCCC3,0.15
3,COCCn1c(C)cc(C(=O)COC(=O)c2cncc(Br)c2)c1C,0.145
4,O=C(Nc1cccc(C(=O)N2CCOCC2)c1)c1ccccc1,-0.393
5,COc1cccc(C2CC(c3ccccc3OC)n3nc(N)nc3N2)c1 (configuration not stated),0.108
6,N#C/C(=C\c1cccc(Cl)c1)c1n[nH]c(Cn2cncn2)n1,-0.433
7,COc1ccc(/C=N/N=C/c2ccc(OC)c(O)c2)cc1O,-0.0586
8,CSc1nnc(-c2sc(-c3ccccc3)nc2C)n1C,0.0959
9,Cc1ccc(C(=O)C2=C(O)C(=O)N(CCCN3CCOCC3)C23C(=O)N(C)c2ccccc23)o1 (configuration not stated),-0.636
10,Cc1ccc(C(=O)N2CCN(c3ccc(NC(=O)c4ccc(Br)o4)cc3)CC2)cc1,-0.286
11,Cc1ccc(C(CC(=O)NCc2ccco2)c2ccc(OC(C)C)cc2)cc1 (configuration not stated),-0.967
12,O=C(Nc1ncc(Cc2ccc(C(F)(F)F)cc2)s1)c1ccc(-c2cccc([N+](=O)[O-])c2)o1,-0.2
13,O=C(CSc1ccc2nnc(-c3ccccn3)n2n1)NCc1ccc2c(c1)OCO2,-0.387
14,CCOc1ccccc1NC(=S)NCC1CCCO1 (configuration not stated),0.153
15,COc1ccccc1N1CCN(c2nnc(-c3ccc(F)cc3)c3ccccc23)CC1,-0.347
16,O=C1/C(=C/c2ccncc2)SC(=S)N1C1CCS(=O)(=O)C1 (configuration not stated),-0.126
17,CCCSc1nnc2nc3c(nn12)c1ccccc1n3C,-0.114
18,COc1cccc(C2C(C#N)=C(N)Oc3c2oc(CO)cc3=O)c1 (configuration not stated),-1.28
19,COc1ccc(Nc2ccc(S(=O)(=O)N3CCCCCC3)cc2[N+](=O)[O-])cc1,0.571
